PubChem BioAssay AID1645887 (National Center for Advancing Translational Sciences (NCATS), 2021)
Several values for one entry are separate records, joined by “and”; a condition that tells them apart may be missing. Identical values can stand only once. Among all 16,000 compounds or so, about 40 (0.2%) were called active. Another 1% or so got no clear call; they are omitted. Calls follow the shape of the dose curve; as a rule, active = well fitted activation curve with a large enough effect; inconclusive = small, poorly fitted or top-dose-only effect, or another doubt; inactive = no such curve, though single readings can be large or run the other way. This is one part of the list.

target: Rap guanine nucleotide exchange factor 4 (Homo sapiens) (UniProt Q8WZA2); assay: Validation qHTS for agonist of cAMP-regulated guanine nucleotide exchange factor 4 (EPAC2); settings: EPAC2 Rap1B BODIPY-GDP exchange, fluorescence; activation: hits give high values;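 as to activation: exchange makes BODIPY-GDP fluorescence drop when released from Rap1B; series mostly up to about 150 µM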
Summary of the method: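 Fluorescent exchange assay: 100 nM EPAC2 with 250 nM RAP1B-BODIPY-GDP and 50 uM GDP; compound added, 5 min at room temperature, then read (ex 480/em 540 nm) every 5 min for 30 min. Normalized to 6.5 mM cAMP agonist control.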
% is scaled to controls: 0 for no effect and ±100 for the full control effect; potency is read from the fitted curve at half-maximal effect.

UniProt Q8WZA2, sequence (Q8WZA2 whole entry, looked up): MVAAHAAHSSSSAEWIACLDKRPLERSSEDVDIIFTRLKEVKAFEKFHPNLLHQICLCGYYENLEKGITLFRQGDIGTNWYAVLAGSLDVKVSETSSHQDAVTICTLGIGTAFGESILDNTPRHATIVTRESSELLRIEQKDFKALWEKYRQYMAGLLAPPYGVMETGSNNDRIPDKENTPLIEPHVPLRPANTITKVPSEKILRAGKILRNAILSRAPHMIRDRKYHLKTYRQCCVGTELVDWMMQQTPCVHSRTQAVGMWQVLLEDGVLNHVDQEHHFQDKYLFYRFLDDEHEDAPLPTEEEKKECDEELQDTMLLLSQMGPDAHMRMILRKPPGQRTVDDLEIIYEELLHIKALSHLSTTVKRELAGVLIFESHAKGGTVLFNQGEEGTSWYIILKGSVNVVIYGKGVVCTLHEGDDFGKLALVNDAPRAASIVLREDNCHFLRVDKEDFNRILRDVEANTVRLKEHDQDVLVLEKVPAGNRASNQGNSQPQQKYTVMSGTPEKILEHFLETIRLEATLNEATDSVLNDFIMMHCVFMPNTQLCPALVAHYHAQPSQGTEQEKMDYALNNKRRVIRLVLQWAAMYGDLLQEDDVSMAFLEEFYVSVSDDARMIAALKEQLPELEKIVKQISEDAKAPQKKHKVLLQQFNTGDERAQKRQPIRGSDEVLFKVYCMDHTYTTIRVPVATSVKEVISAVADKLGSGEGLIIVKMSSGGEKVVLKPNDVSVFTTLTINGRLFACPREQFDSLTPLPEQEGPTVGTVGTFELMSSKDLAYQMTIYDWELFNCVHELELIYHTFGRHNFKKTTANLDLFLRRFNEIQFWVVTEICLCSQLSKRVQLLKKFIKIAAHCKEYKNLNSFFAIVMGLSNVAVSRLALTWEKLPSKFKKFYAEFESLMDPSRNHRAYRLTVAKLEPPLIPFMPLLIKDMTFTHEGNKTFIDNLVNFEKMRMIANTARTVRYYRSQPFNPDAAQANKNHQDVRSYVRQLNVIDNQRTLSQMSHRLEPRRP

Row | SMILES | activation | Potency
1 | CCCCCCCCCCCCCCCCCCOC[C@H](COP(=O)([O-])OCC[N+](C)(C)C)OC | inactive: -10.1% and inactive: -33.1% | 
2 | CC(C)[C@@H]1[C@H]2CC[C@H](C2)[C@H]1N | inactive: -21.3% | 
3 | O=c1[nH]c(=O)n([C@@H]2O[C@H](CO)[C@@H](O)[C@H]2O)cc1F | inactive: -5.6% | 
4 | COc1ccccc1CN1CC[C@@]2(CCCN(S(C)(=O)=O)C2)C1 | inactive: -13.6% | 
5 | COc1ccccc1CN1CC[C@@]2(CCCN(C(=O)c3ccncc3)C2)C1 | inactive: -5.79% | 
6 | COC(=O)N1CCC[C@@]2(CCN(C(=O)NC(C)C)C2)C1 | inactive: -10.8% | 
7 | CC1(C)C(C=C(Cl)Cl)C1C(=O)OCc1cccc(Oc2ccccc2)c1 (stereo not drawn) | inactive: -13.7% | 
8 | OC(c1ccc2c(c1)CN(Cc1cccn1-c1cccnc1)CCO2)C1CCCCC1 (stereo not drawn) | inactive: -24.3% | 
9 | COc1cc2c(cc1O)CC[C@@H]1[C@@H]2CC[C@]2(C)[C@@H](O)CC[C@@H]12 | inactive: -40.8% | 
10 | O=C(c1csnn1)N1CCC2(CC1)CN(c1ncccn1)C2 | inactive: 7.71% | 
11 | CNC(=O)[C@H]1O[C@@H](n2cnc3c(NCc4ccc(N)cc4)ncnc32)[C@H](O)[C@@H]1O | inactive: -9.89% and inactive: -28.8% | 
12 | O=c1[nH]c(=O)c2nc(Br)n(C3OC(CO)C(O)C3O)c2[nH]1 (stereo not drawn) | inactive: -3.94% | 
13 | COc1ccc(NC(=O)N2CCCC3(CCN(C(=O)c4csnn4)CC3)C2)cc1 | inactive: -27.3% | 
14 | O=c1cnc2cnc(N3CCNCC3)nc2n1Cc1ccc(F)cc1 | inactive: -16.9% | 
15 | COc1ccccc1-c1ccnc(-n2ncc(C(=O)N3CCN(C(C)C)CC3)c2-c2ccco2)n1 | inactive: -1.32% | 
16 | O=C(O)[C@H](O)[C@@H](O)[C@H](O)[C@H](O)CO | inactive: -31.8% and inactive: 10.9% | 
17 | c1ccc(-c2csc(-c3nc4ccccc4[nH]3)n2)cc1 | inactive: 13.4% | 
18 | CN(CCc1ccc(Cl)c(Cl)c1)CC(O)COc1ccc(NS(C)(=O)=O)cc1 (stereo not drawn) | inactive: 8.79% | 
19 | CSc1ccc(-c2ccc3c(c2)CC(CNC(=O)Cn2nc(C)nc2C)O3)cc1 (stereo not drawn) | inactive: -21.8% | 
20 | COc1cccc(-c2nc(NCc3ccccc3)c3ccccc3n2)c1 | inactive: -8.68% | 
21 | C[C@@]12CCC3c4ccc(OS(=O)(=O)O)cc4CCC3C1CCC2O (stereo partly drawn) | inactive: -2.96% | 

Row | SMILES | activation | Potency
22 | O=C1CCN(CCc2ccccc2)CCN1CCSc1ccccc1 | inactive: -20.9% | 
23 | COc1ccc(-c2coc3ccc(OC4OC(COC(C)=O)C(OC(C)=O)C(OC(C)=O)C4OC(C)=O)cc3c2=O)cc1 (stereo not drawn) | inactive: -5.23% | 
24 | COc1ccccc1CNc1cc(-c2ccc(C(=O)N(C)C)cc2)ncn1 | inactive: -19% | 
25 | CO[C@@]1(NC(=O)C(C(=O)O)c2ccc(O)cc2)C(=O)N2C(C(=O)O)=C(CSc3nnnn3C)CO[C@@H]21 (stereo partly drawn) | inactive: -3.22% | 
26 | C=CCc1cc(OC)c(O)c(C(=O)NCCO)c1 | inactive: -6.67% | 
27 | Cc1ccccc1-c1cccc(CN2CCc3nnc(C(NS(C)(=O)=O)C(C)C)n3CC2)c1 (stereo not drawn) | inactive: 0.685% | 
28 | O=c1c(O)c(-c2ccccc2)oc2ccccc12 | inactive: -14.3% | 
29 | CN1CCN(c2ncc3ncc(=O)n(CCC#N)c3n2)CC1 | inactive: -13.1% | 
30 | O=C(O)CNC(=O)c1ccccc1 | inactive: -7.47% | 
31 | O=C(c1csnn1)N1CCC2(CC1)CN(c1ccncc1)C2 | inactive: -4.23% | 
32 | O=C(c1cnccn1)N1CCC2(CC1)CN(Cc1ccccc1)C2 | inactive: -4.86% | 
33 | COc1cc2c(CCNC(C)=O)c[nH]c2cc1O | inactive: -4.73% | 
34 | N#Cc1ccc(CN2CC3(CCN(C(=O)c4cnccn4)CC3)C2)cc1 | inactive: 1.7% | 
35 | O=C1CC[C@@H](C(=O)O)N1 | inactive: -12.5% | 
36 | C#C[C@]1(O)CC[C@H]2[C@@H]3CCC4=CC(=O)CC[C@@H]4[C@H]3CC[C@@]21C | inactive: -8.06% | 
37 | CC(=O)N[C@@H]1C(O[C@H]2O[C@H](C(=O)O)C(O)[C@H](O)[C@H]2O)[C@H](O)[C@@H](CO)O[C@H]1O[C@@H]1C(C(=O)O)O[C@@H](O[C@H]2[C@H](O)[C@@H](CO)OC(O)[C@@H]2NC(C)=O)[C@H](O)[C@H]1O (stereo partly drawn) | inactive: -11.1% | 
38 | CC(=O)c1ccc(C(=O)N2CCCC(c3nc(SCc4ccccn4)ncc3C)C2)cc1 (stereo not drawn) | inactive: -2.66% | 
39 | Cc1ccc(CN2CCOc3ccc(CN4CCN(CCO)CC4)cc3C2)s1 | inactive: -20% | 
40 | Nc1[nH]nc2nc3ccccc3nc12 | inactive: -22% | 
41 | O=C(CSc1ncccn1)NCC1Cc2cccc(-c3ncccn3)c2O1 (stereo not drawn) | inactive: 2.05% | 
42 | C/C=C(/C)C(=O)OC1C(OC(C)=O)[C@@]2(CO)C(O)C[C@@]3(C)C(=CCC4[C@@]5(C)CCC(OC6OC(C(=O)O)[C@@H](O[C@@H]7OC(CO)C(O)C(O)C7O)C(O)[C@H]6O[C@@H]6OC(CO)C(O)C(O)C6O)[C@](C)(CO)C5CC[C@@]43C)C2CC1(C)C (stereo partly drawn) | inactive: -3.31% | 

Row | SMILES | activation | Potency
43 | COc1cccc(Nc2ncc3nc(-c4ccc(Cl)cc4)c(=O)n(C[C@H]4CCCO4)c3n2)c1 | inactive: -7.24% | 
44 | N[C@H]1CCN(O)C1=O | inactive: -6.89% | 
45 | COc1ccc2[nH]cc(CCNc3ccnc(-c4ccc(N(C)C)cc4)n3)c2c1 | inactive: 13.4% | 
46 | CC(=O)OC1CC2C(C)(C)C(=O)C=C[C@]2(C)C2CC[C@@]3(C)C(c4ccoc4)OC(=O)C4O[C@@]43[C@]12C (stereo partly drawn) | inactive: 5.15% | 
47 | O=C(c1cnccn1)N1CCC2(CC1)CCN(C(c1ccccc1)c1ccccc1)CC2 | inactive: -22.8% | 
48 | CCCCCCCCCC[n+]1ccc(/C=C/c2c[nH]c3ccccc23)cc1 | inactive: 30.5% | 
49 | C#C[C@]1(OC(C)=O)CC[C@H]2[C@@H]3CCC4=C[C@@H](OC(C)=O)CC[C@@H]4[C@H]3CC[C@@]21C | inactive: -23.5% and inactive: -16.8% | 
50 | COC(=O)c1c(Cl)c(Cl)c(C(=O)OC)c(Cl)c1Cl | inactive: 3.31% and inactive: -3.94% | 
51 | CN(C)Cc1ccccc1-c1nc(NCc2ccccc2)c2ccccc2n1 | inactive: -3.89% | 
52 | Cc1nc2cnc(N3CCOCC3)nc2n(C2CC2)c1=O | inactive: 4.9% | 
53 | CCOC(=O)/C=C/c1ccc2c(c1)S(=O)(=O)N(C1CCCC1)[C@H]2CC(=O)OCC | inactive: -18.5% | 
54 | Cc1noc(C)c1-c1nccc(NCc2cccnc2)n1 | inactive: -10.2% | 
55 | Cc1ccc2nccc(/C=C/c3ccc(N(C)C)cc3)c2c1 | inactive: -79.4% | 
56 | O=C(NCc1nnc2n1CCN(Cc1cccc(C(F)(F)F)c1)CC2)c1ccncc1 | inactive: -10.9% | 
57 | COc1ccc([C@@H]2CNC(=O)C2)cc1OC1CCCC1 | inactive: -30.4% and inactive: -17.2% and inactive: -16.5% | 
58 | CC(C)NC(=O)N1CCC2(CC1)CCN(S(C)(=O)=O)CC2 | inactive: -0.712% | 
59 | Cc1c(C(=O)NCCCc2ccncc2)cnn1-c1nccc(-c2ccccc2F)n1 | inactive: -21.1% | 
60 | Cc1ccccn1 | inactive: 8.79% | 
61 | NS(=O)(=O)c1ccc(C(=O)O)cc1 | inactive: -20.1% | 
62 | Cc1noc(C)c1-c1cncnc1NCCN1CCOCC1 | inactive: -5.64% | 
63 | CCCCCCCCCCCCC/C=C/[C@@H](O)[C@H](CO)N(C)C | inactive: 13.1% | 

Row | SMILES | activation | Potency
64 | Cc1ccc(S(=O)(=O)/C=C\C#N)cc1 | inactive: -19.9% | 
65 | Nc1c(S(=O)(=O)O)cc(Nc2ccc(Nc3nc(Cl)nc(Nc4ccc(S(=O)(=O)O)cc4)n3)c(S(=O)(=O)O)c2)c2c1C(=O)c1ccccc1C2=O | inactive: -18.2% | 
66 | CCN1C(=O)CC(CC(=O)N2CCC(c3nc4ccc(F)cc4[nH]3)CC2)(c2ccccc2C)C1=O (stereo not drawn) | inactive: -10.9% | 
67 | COc1ccc(Oc2ncc3nc(-c4ccc(OC)cc4)c(=O)n(Cc4cccs4)c3n2)cc1 | inactive: -13.9% | 
68 | CS(=O)(=O)N1CCC[C@@]2(CCN(C(c3ccccc3)c3ccccc3)C2)C1 | inactive: -19.2% | 
69 | COc1ccc(-c2nc3cnc(OC)nc3n(CCC#N)c2=O)cc1 | inactive: -3.07% | 
70 | C/C=C(\C)C(=O)O[C@H]1C[C@@]2(C)CCC(C(C)C)C2(O)CC[C@@]1(C)O (stereo partly drawn) | inactive: -1.6% | 
71 | CNc1cc(NS(=O)(=O)c2ccc(N)cc2)nc(NC)n1 | inactive: -9.72% | 
72 | FC(F)(F)c1ccccc1-c1cc(N2CCNCC2)ncn1 | inactive: -10.7% | 
73 | CC(=O)OCC1OC(n2c(Br)nc3c(=O)[nH]c(N)nc32)C(OC(C)=O)C1OC(C)=O (stereo not drawn) | inactive: -6.82% | 
74 | CC(C)(C)CC(=O)OCC(=O)[C@@]12OC(C)(C)O[C@@H]1C[C@H]1[C@@H]3CCC4=CC(=O)C=C[C@]4(C)[C@@]3(F)[C@@H](O)C[C@@]12C | inactive: -6.08% | 
75 | Nc1cc(N)cc(N)c1 |  | active: 50.1 µM
76 | CCOc1ccccc1C(N)=O | inactive: 6.07% | 
77 | Cc1cc2c(c(-c3ccc(Cl)cc3)c1)OC(CNC(=O)Cc1c(C)noc1C)C2 (stereo not drawn) | inactive: -13% | 
78 | CSc1nnc(CCNC(=O)/C=C/c2cccc(F)c2)n1-c1ccc(F)cc1 | inactive: -9.1% | 
79 | CN(C)c1ncc2nc(-c3cc(F)cc(F)c3)c(=O)n(CCc3ccccc3)c2n1 | inactive: 8.28% | 
80 | COc1ccccc1-c1cncnc1N1CCN(C)CC1 | inactive: 2.27% | 
81 | CCN(CC)CCn1c(=O)c(Cc2ccc(OC)cc2)nc2ccccc21 | inactive: -34.1% | 
82 | COc1cc(OC)c2nc(-c3cc4c(c(OC)c3)OCCN(Cc3cn(C)nc3C)C4)cc(C)c2c1 | inactive: -5.56% | 
83 | CCC1CN(CCNC(=O)c2ccc3c(c2)OCCO3)Cc2cc(OC)ccc2O1 (stereo not drawn) | inactive: -3.54% | 
